# Laboratory results from PubChem BioAssay AID504333 (National Center for Advancing Translational Sciences (NCATS), 2011).
# Out of some 360,000 compounds screened, about 16,000 (4.4%) were called active. Inconclusive means that the source gave no clear call. Such entries were picked first, then a sample of the others. Calls come from the whole dose curve; as a rule, active = well fitted inhibition curve with a large enough effect; inconclusive = small, poorly fitted or top-dose-only effect; inactive = no such curve, though single readings can be large or run the other way. Where the call is inconclusive, the potency comes from a doubtful curve fit.
# Target: Bromodomain adjacent to zinc finger domain protein 2B (Homo sapiens) (UniProt Q9UIF8)
# Chain of UniProt Q9UIF8 (Q9UIF8 whole entry, looked up, the tested form may be a part): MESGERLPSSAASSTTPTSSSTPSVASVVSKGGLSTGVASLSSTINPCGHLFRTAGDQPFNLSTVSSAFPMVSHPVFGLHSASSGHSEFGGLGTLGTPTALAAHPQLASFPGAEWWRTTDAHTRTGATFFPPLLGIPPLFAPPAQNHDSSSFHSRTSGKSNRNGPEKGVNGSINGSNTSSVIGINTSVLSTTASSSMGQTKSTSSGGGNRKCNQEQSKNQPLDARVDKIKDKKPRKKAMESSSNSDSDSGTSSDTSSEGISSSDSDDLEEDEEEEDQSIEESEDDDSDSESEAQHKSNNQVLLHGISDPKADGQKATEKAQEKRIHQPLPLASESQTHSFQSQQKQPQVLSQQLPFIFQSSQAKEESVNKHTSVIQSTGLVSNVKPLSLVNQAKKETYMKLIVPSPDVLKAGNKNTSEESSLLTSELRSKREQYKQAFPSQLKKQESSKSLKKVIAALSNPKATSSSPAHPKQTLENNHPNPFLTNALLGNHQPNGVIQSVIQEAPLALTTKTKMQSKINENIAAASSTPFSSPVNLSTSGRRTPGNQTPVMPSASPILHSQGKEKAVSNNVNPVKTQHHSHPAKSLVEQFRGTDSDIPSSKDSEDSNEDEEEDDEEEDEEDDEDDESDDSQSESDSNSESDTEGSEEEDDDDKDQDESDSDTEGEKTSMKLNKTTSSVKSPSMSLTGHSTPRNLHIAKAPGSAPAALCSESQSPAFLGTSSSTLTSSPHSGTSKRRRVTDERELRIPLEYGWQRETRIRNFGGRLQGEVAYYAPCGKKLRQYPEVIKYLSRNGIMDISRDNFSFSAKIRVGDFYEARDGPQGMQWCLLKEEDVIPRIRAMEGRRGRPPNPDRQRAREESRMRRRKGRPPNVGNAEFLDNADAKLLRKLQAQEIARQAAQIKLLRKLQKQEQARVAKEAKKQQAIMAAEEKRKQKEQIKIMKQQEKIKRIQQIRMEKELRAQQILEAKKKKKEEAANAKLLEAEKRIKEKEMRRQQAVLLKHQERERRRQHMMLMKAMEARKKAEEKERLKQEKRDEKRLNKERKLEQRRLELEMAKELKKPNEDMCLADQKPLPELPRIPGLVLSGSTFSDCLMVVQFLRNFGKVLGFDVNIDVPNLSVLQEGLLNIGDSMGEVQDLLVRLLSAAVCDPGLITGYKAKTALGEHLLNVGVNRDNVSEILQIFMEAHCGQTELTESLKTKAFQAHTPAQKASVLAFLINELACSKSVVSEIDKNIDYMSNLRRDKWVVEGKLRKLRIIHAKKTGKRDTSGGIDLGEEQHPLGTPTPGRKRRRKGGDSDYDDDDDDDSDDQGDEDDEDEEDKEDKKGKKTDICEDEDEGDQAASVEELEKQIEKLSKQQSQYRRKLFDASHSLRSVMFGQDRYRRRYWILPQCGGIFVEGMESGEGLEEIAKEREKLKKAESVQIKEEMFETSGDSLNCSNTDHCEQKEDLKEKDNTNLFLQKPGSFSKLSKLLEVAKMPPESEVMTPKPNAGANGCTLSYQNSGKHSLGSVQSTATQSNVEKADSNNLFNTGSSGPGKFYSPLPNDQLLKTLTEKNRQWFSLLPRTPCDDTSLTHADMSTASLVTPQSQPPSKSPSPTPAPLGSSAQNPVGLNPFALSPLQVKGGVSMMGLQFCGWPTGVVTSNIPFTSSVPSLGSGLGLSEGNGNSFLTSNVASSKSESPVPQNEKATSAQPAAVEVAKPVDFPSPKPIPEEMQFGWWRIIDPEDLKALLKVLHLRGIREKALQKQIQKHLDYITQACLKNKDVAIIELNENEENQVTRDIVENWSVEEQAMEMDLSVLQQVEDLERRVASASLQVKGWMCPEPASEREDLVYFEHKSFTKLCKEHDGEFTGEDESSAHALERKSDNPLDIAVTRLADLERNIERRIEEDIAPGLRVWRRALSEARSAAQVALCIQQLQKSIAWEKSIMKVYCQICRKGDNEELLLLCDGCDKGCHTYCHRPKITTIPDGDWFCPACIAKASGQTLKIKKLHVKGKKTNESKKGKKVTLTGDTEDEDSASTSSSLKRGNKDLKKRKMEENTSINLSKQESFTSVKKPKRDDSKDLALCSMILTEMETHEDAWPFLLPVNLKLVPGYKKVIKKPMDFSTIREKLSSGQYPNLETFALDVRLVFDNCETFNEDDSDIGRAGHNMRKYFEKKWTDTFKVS
# Test: qHTS Assay for Inhibitors of BAZ2B; note: nearly all actives have a fitted effect of over 60% in size
# Details: AlphaScreen BAZ2B-H3K14Ac peptide displacement; activity change, negative = inhibition: at 114 µM (top of the series) unless noted
# Outline: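 In this displacement format the biotinylated H3(5-23) peptide acetylated at Lys14 serves as ligand at 50 nM, with BAZ2B at 50 nM in PBS pH 7.4 containing 0.01% Tween-20. Donor and acceptor beads are 10 ug/mL final.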
# % is set by controls: 0 for no effect and ±100 for the full control effect; potency is the fitted concentration of half-maximal effect; tags give direction and shape of the fitted curve.
SMILES,Potency,"activity change, negative = inhibition"
Cc1cc(NS(=O)(=O)c2ccc(NC(=S)NC(=O)c3cccnc3)cc2)no1,"inconclusive: 89.1 µM [inhibitor, single point]",
COc1ccc(N2CCN(c3oc(/C=C/c4ccccc4OC)nc3C#N)CC2)cc1,active: 3.16 µM,
CCN(CC)C(=O)C1CCCN(Cc2ccc(N(C)C)cc2)C1 (stereo not drawn),active: 31.6 µM,
COc1cc(C(=O)NNC(=S)NC(=O)c2ccc(F)cc2)cc(OC)c1OC,,inactive: -30.7%
N#C/C(=C\C1=C(N2CCOCC2)C(=C/c2cccc([N+](=O)[O-])c2)/CC1)C(=O)Nc1ccccc1F,active: 1.26 µM,
COc1ccc(/C=C2\N=C(SC)SC2=O)cc1OC,,inactive: 5.69%
Cn1c(C(=O)OC(C(=O)NC2CCCCC2)c2cccnc2)cc2sccc21 (stereo not drawn),"inconclusive: 31.6 µM [inhibitor, partial curve, poor fit]",
C/C(=N/NC(=O)CCc1c(C)n[nH]c1C)c1cccc([N+](=O)[O-])c1,"inconclusive: 89.1 µM [inhibitor, single point]",
O=C1CCN(N=Nc2cccc(Cl)c2)N1,"inconclusive: 89.1 µM [inhibitor, single point]",
Cn1c(=S)[nH]c2ccccc21,,inactive: -35%
COc1ccc(NC(C)=O)cc1NC(C)C(=O)Nc1cccc2ccccc12 (stereo not drawn),,inactive: -32%
O=C(O)c1cc(N/N=C/c2c[nH]c3ccccc23)ccc1Cl,"inconclusive: 50.1 µM [inhibitor, partial curve]",
COC(=O)c1ccc(COc2ccc3c(C)c(C)c(=O)oc3c2)o1,"inconclusive: 89.1 µM [inhibitor, single point]",
Fc1ccccc1C1CC(c2ccco2)=Nc2ccccc2S1 (stereo not drawn),"inconclusive: 89.1 µM [inhibitor, single point]",
COc1ccc2c(c1)-c1nc(/N=C/c3ccc(O)cc3)sc1CC2,active: 50.1 µM,
Clc1ccc(-c2nc(N3CCOCC3)nc3ccccc23)cc1,"inconclusive: 100 µM [inhibitor, single point]",
CCCCOCCCN1CC(=O)N2[C@@H](Cc3c([nH]c4ccccc34)C2(C)C)C1=O,,inactive: -4.55%
O=S(=O)(Nn1cnnc1)c1ccc(F)cc1,"inconclusive: 89.1 µM [inhibitor, single point]",
Cc1ccccc1NS(=O)(=O)c1cc2c3c(c1)C(C)C(=O)N3CCC2 (stereo not drawn),,inactive: -3.85%
CC(/C=C1\SC(=S)N(NC(=O)c2ccc(C)cc2)C1=O)=C\c1ccccc1,"inconclusive: 10 µM [inhibitor, full curve, poor fit]",
COc1ccc(NC(=O)c2c(NCc3cccs3)sc3c2CCCCC3)c(OC)c1,"inconclusive: 39.8 µM [inhibitor, partial curve]",
CCOC(=O)C1CCN(C(=O)c2sc3nc(C)nc(N4CCC(C)CC4)c3c2C)CC1,,inactive: 7.36%
CCCC(=O)Nc1nc(-c2ccccc2)c(CC)s1,"inconclusive: 79.4 µM [inhibitor, single point]",
CN1CCN(C(=S)NCCc2ccccc2)CC1,active: 44.7 µM,

SMILES,Potency,"activity change, negative = inhibition"
COC(=O)CNC(=O)CN1C(=O)N(c2ccc(Cl)cc2)C(N(O)C(=O)Nc2ccc(Cl)cc2)C1(C)C (stereo not drawn),,inactive: -24.6% [at 57.1 µM]
COc1ccccc1C(=O)N=C1NC(=O)CC2C(=O)NCCN12 (stereo not drawn),"inconclusive: 89.1 µM [inhibitor, single point]",
Clc1ccc(OCCN2CCCCC2)c(Cl)c1,active: 50.1 µM,
CC(C)(C)C(=O)Cn1c(=O)n(CC2CCCO2)c(=O)c2ccccc21 (stereo not drawn),"inconclusive: 89.1 µM [inhibitor, single point]",
Cc1cc(C)cc(Oc2ccc(N)cc2)c1,"inconclusive: 44.7 µM [inhibitor, partial curve]",
Cc1ccc(SC[C@H](C)CN2CC[C@H](C(C)(C)C)CCC2=O)cc1,,inactive: 10.2% [at 57.1 µM]
COC/C=C/C1=CC2=CC(=O)C(C)(OC(=O)C3CCCC3)C(=O)C2=CO1 (stereo not drawn),active: 56.2 µM,
O=C(Nc1nc2c(s1)CCCC2)c1ccccc1F,,inactive: -17.9%
CC(C)c1ccc(C2=NC(c3ccncc3)=Nc3ccc(F)cc3N2)cc1,"inconclusive: 56.2 µM [inhibitor, partial curve]",
O=C1/C(=C\c2cccs2)N=C(c2cccs2)N1Nc1ccccc1,"inconclusive: 39.8 µM [inhibitor, partial curve]",
CC(=O)c1c(C)[nH]c(C(=O)N2CCc3ccccc3C2)c1C,"inconclusive: 89.1 µM [inhibitor, single point]",
O=C1N/C(=N\N=C\c2cccs2)SC1Cc1ccc(Cl)cc1Cl (stereo not drawn),,inactive: -5.18%
Cc1c(C(=O)Nc2cccc(C#N)c2)sc2nc3n(c(=O)c12)CCCCC3,active: 50.1 µM,
Cc1cc2cc(CNC(=O)NC3CCCCC3)ccc2[nH]1,"inconclusive: 79.4 µM [inhibitor, single point]",
Cn1c(N2CCCC2)nc2c1c(=O)n(Cc1ccc(F)cc1)c(=O)n2C,"inconclusive: 70.8 µM [inhibitor, single point]",
CCCNC(=O)CN1C(=O)c2c(c3ccccc3n2C)C1c1ccc(OC)cc1 (stereo not drawn),,inactive: -28.2%
Cc1ccccc1C(=O)Nc1cccc(C(=O)N/N=C/c2cc(Cl)cc([N+](=O)[O-])c2O)c1,active: 22.4 µM,
O=C(COC(=O)C1CC(=O)N(Cc2ccccc2)C1)c1ccc(Br)cc1 (stereo not drawn),,inactive: 4.74%
O=C(Cc1ccccc1)NCCSCc1ccco1,"inconclusive: 3.98 µM [inhibitor, partial curve, poor fit]",
CCOc1ccccc1Nc1nnc(SCC(=O)Nc2cccc(S(=O)(=O)NC3=NCCCCC3)c2)s1,,inactive: -8.79%
COc1nccnc1NS(=O)(=O)c1ccc(NC(=S)NC(=O)c2ccc(F)c(F)c2)cc1,"inconclusive: 50.1 µM [inhibitor, partial curve]",
CN(C)c1ccc(/C=C/C#N)cc1,"inconclusive: 79.4 µM [inhibitor, single point]",
CN(CC(=O)Nc1ccc(N2CCOCC2)cc1)C(=O)CCc1cc(C(C)(C)C)c(O)c(C(C)(C)C)c1,active: 50.1 µM,
CN(C)/N=C/C=C1\CC/C(=C\c2ccc(Br)cc2)C1=O,"inconclusive: 28.2 µM [inhibitor, full curve]",
